# In all, about 310,000 compounds went through this assay and about 14,000 (4.5%) showed an effect of 50% or more. The effect is printed as a negative number. The list shows a part of the results.
# Biological target: human ether-à-go-go-related gene (hERG) potassium channel (human, UniProt Q12809)
# Experiment: primary screen, population patch clamp on CHO cells stably expressing hERG
# 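Further: peak tail current of the secondary pulse compared with the same well before compound.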
# human ether-à-go-go-related gene (hERG) potassium channel, sequence (Q12809 whole entry, looked up): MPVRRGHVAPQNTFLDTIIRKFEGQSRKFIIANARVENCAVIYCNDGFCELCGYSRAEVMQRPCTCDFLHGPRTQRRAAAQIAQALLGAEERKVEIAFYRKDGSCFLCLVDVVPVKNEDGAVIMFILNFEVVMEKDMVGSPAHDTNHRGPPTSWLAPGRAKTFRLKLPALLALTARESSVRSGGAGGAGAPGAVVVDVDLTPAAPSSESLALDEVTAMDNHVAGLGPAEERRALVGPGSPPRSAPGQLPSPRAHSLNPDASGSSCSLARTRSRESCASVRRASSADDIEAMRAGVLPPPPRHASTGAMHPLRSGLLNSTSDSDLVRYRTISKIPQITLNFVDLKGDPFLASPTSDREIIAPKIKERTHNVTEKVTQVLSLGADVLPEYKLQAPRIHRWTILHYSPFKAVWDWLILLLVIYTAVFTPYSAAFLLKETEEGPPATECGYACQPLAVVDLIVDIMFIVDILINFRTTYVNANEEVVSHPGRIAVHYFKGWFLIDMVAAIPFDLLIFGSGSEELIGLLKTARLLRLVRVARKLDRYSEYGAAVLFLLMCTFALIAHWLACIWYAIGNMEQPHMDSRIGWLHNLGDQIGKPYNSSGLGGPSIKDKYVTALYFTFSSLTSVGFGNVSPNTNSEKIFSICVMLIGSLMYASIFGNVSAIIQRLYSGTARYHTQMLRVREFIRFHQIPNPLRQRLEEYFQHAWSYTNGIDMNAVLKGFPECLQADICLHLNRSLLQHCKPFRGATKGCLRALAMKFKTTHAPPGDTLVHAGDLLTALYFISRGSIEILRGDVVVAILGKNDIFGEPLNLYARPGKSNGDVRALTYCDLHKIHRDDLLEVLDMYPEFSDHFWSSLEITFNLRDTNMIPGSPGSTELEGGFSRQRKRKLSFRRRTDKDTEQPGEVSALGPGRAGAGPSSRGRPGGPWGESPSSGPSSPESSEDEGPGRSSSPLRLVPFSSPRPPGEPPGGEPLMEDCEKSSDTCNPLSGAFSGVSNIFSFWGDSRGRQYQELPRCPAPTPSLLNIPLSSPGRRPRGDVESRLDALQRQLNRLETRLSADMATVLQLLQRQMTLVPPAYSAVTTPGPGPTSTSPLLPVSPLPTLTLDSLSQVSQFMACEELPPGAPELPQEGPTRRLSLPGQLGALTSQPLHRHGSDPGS
row,Compound,"hERG current change (%, negative = inhibition) at 10uM"
1,CCOc1ccc(-c2noc(CCCC(=O)NC3CCCC3)n2)cc1OC,0.921%
2,COc1ccc(Nc2c3c(nc4ccc(C)cc24)CCC3)cc1.Cl,-78.3%
3,CCOc1ccc(C2=NNC(c3cccs3)=Nc3ccc(OCC)cc32)cc1,13.8%
4,CC1(C)CC2(C)OCCN2C(=S)N1 (stereo not shown),2.64%
5,C=CCn1c(SCC(=O)NC(N)=O)nnc1-c1cc2c(s1)CCC(CC)C2 (stereo not shown),3.79%
6,O=S(=O)(NCCCCCNS(=O)(=O)c1ccc(F)cc1)c1ccc(F)cc1,1.43%
7,COc1cccc(/C=C/C(=O)Nc2ccc3c(c2)OCCO3)c1,7.06%
8,O=c1[nH]cc(C(F)(F)F)cc1NS(=O)(=O)c1ccccc1[N+](=O)[O-],12.6%
9,CCC(C)C(=O)Nc1nccs1 (stereo not shown),17%
10,O=C(CCCCC(=O)NCc1cccs1)NCc1cccs1,6.59%
11,O=C(O)CCc1ccc(S(=O)(=O)N2CCOCC2)cc1,9.65%
12,C=CCn1c(C)nnc1SCC(=O)N1CCN(S(=O)(=O)c2ccccc2)CC1,13.1%
13,CCn1nc(C)c(NC(=O)Nc2cccc(Cl)c2Cl)c1C,30.4%
14,Cc1ccc(S(=O)(=O)NCCNc2ccc([N+](=O)[O-])cc2C(F)(F)F)cc1,-6.92%
15,NC(=O)C1CCN(C(=O)COc2ccc3c4c(c(=O)oc3c2)CCCC4)CC1,9.02%
16,Cc1ccc(-c2nn(-c3ccccc3)cc2/C=C/C(=O)Nc2nccs2)cc1,10.1%
17,CCOC(=O)c1c2ccccc2[n+]([O-])n1CCO,0.676%
18,Cc1oc2c(c1C(=O)NCCCC(=O)O)CCCC2,8.67%
19,O=C(Nc1cc(S(=O)(=O)Nc2ccccc2Cl)ccc1O)c1sc2cc(Cl)ccc2c1Cl,19.3%
20,Cn1nc(C(=O)Nc2ccc(Cl)cc2)cc1C(=O)Nc1ccc(Cl)cc1,13.7%

row,Compound,"hERG current change (%, negative = inhibition) at 10uM"
1,Nc1ccccc1C(=O)NCCCN1CCN(c2cccc(Cl)c2)CC1,-71.4%
2,Oc1ccccc1-c1cc(-c2ccc3c(c2)OCCO3)n[nH]1,9.59%
3,CC(=O)Nc1ccc(S(=O)(=O)N2CCN(S(=O)(=O)N3CCC(C)CC3)CC2)cc1,16.9%
4,N#Cc1sc2nc3c(c(-c4ccco4)c2c1N)CCCC3,-3.21%
5,O=C(NCCCN1CCCCCC1)C1CCCN(S(=O)(=O)c2cccc3nsnc23)C1 (stereo not shown),-20.2%
6,Cc1c(NC(=O)Nc2ccccc2)cccc1[N+](=O)[O-],1.71%
7,CCN(CC)CCN1C(=O)c2cccc3cc(N)cc(c23)C1=O,-32.1%
8,CC1CCCCN1CC(=O)Nc1ccc2c(c1)OC(F)(F)O2 (stereo not shown),9.08%
9,CC(C)Oc1cccc(C(=O)C2CCCN(C(=O)c3csnn3)C2)c1 (stereo not shown),-7.27%
10,COc1cccc(CNC(=O)CCCCCn2c(=S)[nH]c3ccc(N4CCOCC4)cc3c2=O)c1,0.827%
11,NS(=O)(=O)c1ccc(CCNC(=O)Cn2c(=O)c3cccn3c3cccnc32)cc1,22.3%
12,O=C1N(C2CCCC2)C[C@@H]2C[C@@H](c3cccn3-c3ccccn3)N3CCC[C@@]123,-62.6%
13,O=c1c2ccccc2nc(SCc2cc([N+](=O)[O-])cc3c2OCOC3)n1-c1ccccc1,-6.37%
14,C=CCn1c(SCc2ccccc2C#N)nnc1-c1ccccc1O,-23.7%
15,O=C(CSc1nnc(-c2ccccc2)o1)NC1CCS(=O)(=O)C1 (stereo not shown),-4.33%
16,CCOc1ccc(C(=O)N/N=C/c2c(C)[nH]c(=O)[nH]c2=O)cc1,-1.45%
17,Cc1cccc(C(=O)NCC(=O)N2CCC2)c1,2.59%
18,O=C(NCc1ccccc1)C12CC3CC(CC(Br)(C3)C1)C2,1.21%
19,COc1c(C)cc(C(=O)C2CCCN(C(=O)c3cc(C4CC4)[nH]n3)C2)cc1C (stereo not shown),-18.5%
20,CCn1c(-c2cccnc2Cl)nc2cc(Cl)c(Cl)cc21,-25.5%

row,Compound,"hERG current change (%, negative = inhibition) at 10uM"
1,COc1ccccc1N1C(=O)C2C3C=CC(C3)C2C1=O (stereo not shown),4.43%
2,NC(=O)Nc1ccc(Cl)cc1,9.27%
3,CC(C)(C)c1nnc(NC(=O)c2ccc3c(c2)OCO3)s1,17.4%
4,Cc1[nH]n(-c2ccccc2)c(=O)c1N=Nc1ccccc1,15.1%
5,Cc1ccc(NC(=S)Nc2ccc(S(=O)(=O)Nc3ncccn3)cc2)cc1Cl,14.7%
6,Cc1cccc(-c2nc(CS(=O)CC(=O)NCc3cccs3)c(C)o2)c1 (stereo not shown),-15.1%
7,CC1CCCC(C(=O)O)N1C(=O)CCS (stereo not shown),-14.7%
8,CC(=O)Nc1ccc(-c2nc3ccc(NC(C)=O)cc3o2)cc1,29.5%
9,COc1cc2c(cc1OC)CN(C(=O)C1CCC(=O)N(CCCN3CCOCC3)C1)CC2 (stereo not shown),13.6%
10,O=C(Nc1ccccc1)N(CCCN1CCOCC1)Cc1cccs1,-40.1%
11,O=c1c(Cc2c(F)cccc2Cl)c(O)ccn1CCc1c[nH]c2ccccc12,-10.4%
12,Cc1cc(Cl)ccc1OC(C)c1nnc(N)s1 (stereo not shown),-11.1%
13,CCOC(=O)CN=C/C(C(C)=O)=C(/C)O,33.5%
14,CC(C)(C)C(=O)COC(=O)c1cc(S(=O)(=O)N2CCCCC2)ccc1N1CCOCC1,-2.33%
15,Cc1ccccc1C(=O)NC1CCN(C(=O)N(c2ccccc2)c2ccccc2)CC1,-1.11%
16,O=C(COC(=O)c1ccccn1)c1cccc(Br)c1,7.53%
17,Cc1ccc(NS(=O)(=O)c2c(C)nc3sccn3c2=O)c(C)c1,-15.2%
18,CC(C)CC(C(=O)N1CCc2ccccc2C1)N1C(=O)c2ccccc2C1=O (stereo not shown),-50.3%
